Test results: article PMC6688997 (Nature Communications, 2019)
Read-outs that look alike come from different tables or passages of the source.

Columns and labels:
[1] = system: JFCR-165 patient-derived cells; experiment: CellTiter-Glo cell viability assay; format: cell-based, human; settings: 72–120 h
[2] = system: MGH193-1B patient-derived cells; experiment: CellTiter-Glo cell viability assay; settings: 72–120 h
[3] = system: JFCR-168 patient-derived cells; experiment: CellTiter-Glo cell viability assay; format: cell-based, human; settings: 72–120 h
[4] = system: HCC78xe3-SLC34A2-ROS1-WT xenograft; format: in vivo, mouse; settings: DS6051b 50mg/kg, in mm³
[5] = system: HCC78xe3-SLC34A2-ROS1-G2032R xenograft; format: in vivo, mouse; settings: DS6051b 50mg/kg, in mm³

## Cc1cc(Nc2ncc(Cl)c(Nc3ccccc3S(=O)(=O)C(C)C)n2)c(OC(C)C)cc1C1CCNCC1 [ceritinib]
[1]
  Sensitivity (cell viability): sensitive
[2]
  Sensitivity (cell viability): sensitive
[3]
  Sensitivity (cell viability): sensitive

## CN1CCN(c2ccc(C(=O)Nc3n[nH]c4ccc(Cc5cc(F)cc(F)c5)cc34)c(NC3CCOCC3)c2)CC1 [entrectinib]
[1]
  Sensitivity (cell viability): sensitive
[2]
  Sensitivity (cell viability): sensitive
[3]
  Sensitivity (cell viability): sensitive

## C[C@H]1Oc2cc(cnc2N)-c2c(nn(C)c2C#N)CN(C)C(=O)c2ccc(F)cc21 [lorlatinib]
[1]
  Sensitivity (cell viability): sensitive
[2]
  Sensitivity (cell viability): sensitive
[3]
  Sensitivity (cell viability): sensitive

## COc1cc2nccc(Oc3ccc(NC(=O)C4(C(=O)Nc5ccc(F)cc5)CC4)cc3)c2cc1OC [cabozantinib]
[1]
  Sensitivity (cell viability): sensitive
[2]
  Sensitivity (cell viability): sensitive
[3]
  Sensitivity (cell viability): sensitive

## C[C@@H](Oc1cc(-c2cnn(C3CCNCC3)c2)cnc1N)c1c(Cl)ccc(F)c1Cl [crizotinib, reference compound]
[1]
  Sensitivity (cell viability): sensitive
[3]
  Sensitivity (cell viability): sensitive

## COc1cc(N2CCC(N3CCN(C)CC3)CC2)ccc1Nc1ncc(Cl)c(Nc2ccccc2P(C)(C)=O)n1 [brigatinib]
[1]
  Sensitivity (cell viability): sensitive
[2]
  Sensitivity (cell viability): sensitive
[3]
  Sensitivity (cell viability): sensitive

## C[C@@H](N)COc1ccc(-c2cnc3ccc(N[C@H](C)c4cccc(F)c4)nn23)cc1.O=C(O)CCCCC(=O)O [DS-6051b]
[1]
  Sensitivity (cell viability): sensitive
[4]; day 0, group mean
  Tumor volume LWW/2, Mean: 138.4
[4]; day 3, group mean
  Tumor volume LWW/2, Mean: 80.4
[4]; day 6, group mean
  Tumor volume LWW/2, Mean: 46.1
[4]; day 9, group mean
  Tumor volume LWW/2, Mean: 37.3
[4]; day 14, group mean
  Tumor volume LWW/2, Mean: 19.5
[4]; day 17, group mean
  Tumor volume LWW/2, Mean: 22.2
[4]; day 21, group mean
  Tumor volume LWW/2, Mean: 15.2
[4]; day 25, group mean
  Tumor volume LWW/2, Mean: 10.4
[4]; day 28, group mean
  Tumor volume LWW/2, Mean: 6.6
[4]; day 31, group mean
  Tumor volume LWW/2, Mean: 8.3
[4]; day 35, group mean
  Tumor volume LWW/2, Mean: 8.2
[4]; day 38, group mean
  Tumor volume LWW/2, Mean: 8.5
[4]; day 43, group mean
  Tumor volume LWW/2, Mean: 9.5
[4]; day 48, group mean
  Tumor volume LWW/2, Mean: 4.0
[4]; day 52, group mean
  Tumor volume LWW/2, Mean: 6.2
[4]; day 55, group mean
  Tumor volume LWW/2, Mean: 7.4
[5]; day 0, group mean
  Tumor volume LWW/2, Mean: 141.5
[5]; day 3, group mean
  Tumor volume LWW/2, Mean: 113.0
[5]; day 6, group mean
  Tumor volume LWW/2, Mean: 113.4
[5]; day 9, group mean
  Tumor volume LWW/2, Mean: 93.0
[5]; day 14, group mean
  Tumor volume LWW/2, Mean: 73.9
[5]; day 17, group mean
  Tumor volume LWW/2, Mean: 80.0
[5]; day 21, group mean
  Tumor volume LWW/2, Mean: 97.0
[5]; day 25, group mean
  Tumor volume LWW/2, Mean: 137.7
[5]; day 28, group mean
  Tumor volume LWW/2, Mean: 153.3
[5]; day 31, group mean
  Tumor volume LWW/2, Mean: 169.0
[5]; day 35, group mean
  Tumor volume LWW/2, Mean: 231.4
[5]; day 38, group mean
  Tumor volume LWW/2, Mean: 224.1
[5]; day 43, group mean
  Tumor volume LWW/2, Mean: 291.9
[5]; day 48, group mean
  Tumor volume LWW/2, Mean: 260.1
[5]; day 52, group mean
  Tumor volume LWW/2, Mean: 339.1
[5]; day 55, group mean
  Tumor volume LWW/2, Mean: 309.8
[2]
  Sensitivity (cell viability): sensitive
[3]
  Sensitivity (cell viability): sensitive
